Results taken from article PMC12136788.
Some of the results follow.

T1: UNK ZnF1-3 (human, UniProt Q9C0B0 31-174)
T1 sequence: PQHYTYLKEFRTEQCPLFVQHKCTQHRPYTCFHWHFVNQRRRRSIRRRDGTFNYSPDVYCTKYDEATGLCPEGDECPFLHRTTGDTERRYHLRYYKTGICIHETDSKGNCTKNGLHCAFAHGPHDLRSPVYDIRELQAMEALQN

B1: chrX:20249591:20249592:+_ENSMUSG00000001924_ENSMUST00000001989|mus_mus|motif|central (ssRNA)
RNA: GGGAGUUCUACAGUCCGACGAUCCACCAGGAAGUACUUUUGCUUGCUCAGCUUCUCCUGAAAGUCUGACCCAAAUACAGCGGCCUGCCCAUCGUAACGGUUCUGACGUGGGAGGCACUUCUCCUCUGUCAGAGCCUCUUUGUCCAACAGAGGAUUGAGCAUCA
B2: chr1:46159212:46159213:+_ENSG00000159596_ENST00000372025|hu_mus|hu_hu_hu_mus_True|8_98 (ssRNA)
RNA: GGGAGUUCUACAGUCCGACGAUCUCUGAUCCCUCCCAAGAAAGAUAGGAAACCGGCUCCAUAAGCCAUCUGAGUGAAAGCUAGGACGGGGAUAUAAGACUUUGUUAUUACCAUGAGAAGUGGGGGAGCAACGAAGGGGAUUAACAACAGAGGAUUGAGCAUCA
B3: 25299266_25299475_5332_CDS_ENSMUSG00000026944_ENSMUST00000102919|mouse|control|control (ssRNA)
RNA: GGGAGUUCUACAGUCCGACGAUCGUUCAUGGGGUGGUUGGUGACGGUGAUGCCAUAGGCUGCUGGAUUGCCCUUGCUUUUGGGUAGGUUUGCACGCAGAAUGGCAUUGUUGAGGCUGUUGAGGUAGGUGGGCAUGCUGUGGUACAACAGAGGAUUGAGCAUCA
B4: chr14:66974463:66974464:+_ENSMUSG00000022044_ENSMUST00000074523|mus_hu|mus_mus_mus_hu_False|1_88 (ssRNA)
RNA: GGGAGUUCUACAGUCCGACGAUCUUGUAGGACGACUUAUUCAGGGGAUCAGACAAGAAGCAGGAGCAGAACAAGGACACCAGCGGGAGCUCCUUCAUCUUCUCUUUGUAGGCAGCAAGGGUCAUGUUUCUGGGAUCCUGGUGGCAACAGAGGAUUGAGCAUCA
B5: 72942203_72944209_2190_3pUTR_ENSMUSG00000036698_ENSMUST00000044113|mouse|control|control (ssRNA)
RNA: GGGAGUUCUACAGUCCGACGAUCCAGCUUGAUGCAGGCCUCUCUGAUGGCCAGGAGCUCAUGGUGGAGAACCUGCUGGAACUGGCCCUCGGAGACGCCAUCGCGGUAGAAGAUGAUGCGGGUGGGCUUGAAGCGGGUGGACUUCAACAGAGGAUUGAGCAUCA
B6: chr2:75765252:75765253:+_ENSMUSG00000042410_ENSMUST00000047232|mus_hu|FALSE|FALSE (ssRNA)
RNA: GGGAGUUCUACAGUCCGACGAUCAGUGAUUCAAAGUAAUCAUUUCACUUUAAUAUCCAGGUUUGAAUGUACAAAUGCUUGCUAAAUGUGAUUAAUGUUCUCAUUAUUUAAGAAACAGGAUAUUUCAAACUUUUGAUUAUGGUACAACAGAGGAUUGAGCAUCA
B7: 219134153_219134704_336_CDS_ENSG00000127837_ENST00000248450|human|control|control (ssRNA)
RNA: GGGAGUUCUACAGUCCGACGAUCGCCGACCACCCCUUCCUGGGGUUCUAGAACCCAGCCCUCUUCGUUGCCCUCUUCCUCCUCUUCUUCCUCAAAGUCCACAUCUUCCAUCUCCUGGGCCAGGUCAUCUGGGUCCGGCGGACCCAACAGAGGAUUGAGCAUCA
B8: chr2:35989780:35989781:-_ENSMUSG00000026889_ENSMUST00000028251|mus_mus|FALSE|FALSE (ssRNA)
RNA: GGGAGUUCUACAGUCCGACGAUCGCAUUCUCCAGGGGAAGAGUUUUGGUUUCUGUUUCCAUCAAUCUCUGAGAAAUACUGCUAGCCUCAGAGCUGUGCCCUCAGCUCAUGCCCCGAAAGCAGCUUCCGACGCUGGGGUCCGAGCAACAGAGGAUUGAGCAUCA
B9: chr5:71593506:71593507:-_ENSG00000113048_ENST00000457646|hu_mus|FALSE|FALSE (ssRNA)
RNA: GGGAGUUCUACAGUCCGACGAUCAUCUAGAUCUUCUCGGGAUGCAAUGUUGUCCACAAACCGUGAUAUUGAUAAAGAACUAACAGGCAAUUUUCUUUCAUACGCUUUGUCCAUUAAGGAUGCAAGAUCAGCCAGAUGGUAUUCCAACAGAGGAUUGAGCAUCA
B10: chr2:103900078:103900079:+_ENSMUSG00000027180_ENSMUST00000028603|mus_hu|motif|central (ssRNA)
RNA: GGGAGUUCUACAGUCCGACGAUCCUCCUCCUCCUCUUCUUCCAUCUCUUCAUAUUCAUCAGGACCCAUUUCCAAUCGGGCGGUAGACACCCUGAAUGUUGGACAUGCCAUAUGGAAUCGGGGAAUGGCAACAUUAAAGAUCUUCAACAGAGGAUUGAGCAUCA
B11: 39958035_39958377_338_CDS_ENSMUSG00000026074_ENSMUST00000163854|mouse|control|control (ssRNA)
RNA: GGGAGUUCUACAGUCCGACGAUCCAGCUCAAAAAUCCCAGCAGGGUCCCGCAGGGACGACAGGUCAAUGUCCACCAGGCUCUUCGCGGGAGAGUCGUUCGCCAUCUUCCCCGGGUCGCCGCUCCGGGAGCGGGCGAGAGAGCGCAACAGAGGAUUGAGCAUCA
B12: chr11:80292881:80292882:+_ENSMUSG00000048895_ENSMUST00000053413|mus_mus|FALSE|FALSE (ssRNA)
RNA: GGGAGUUCUACAGUCCGACGAUCCAGCUUAAAAUUAACAAUUGGGGGGGGGGGGCAGGGAUGGGAAACAGCAACACCCCUAUUGACUGAUCUCACCUCCCCCCAACGAUACAGAACAAAGAUCACGGGCACCAGCGAGAGGCCCAACAGAGGAUUGAGCAUCA
B13: 30087084_30087204_3749_3pUTR_ENSG00000139514_ENST00000380752|human|control|control (ssRNA)
RNA: GGGAGUUCUACAGUCCGACGAUCGGAAAGGAAACUAAGUUUUGAAAGCAGCAUUUCCAUUUCCCCUGGUGUCCAAAAUGCCCACAUCCCUCCUCCUCCCCCAUCAGCAUGGGCCUUCUGUCUCCUGAAGUAGACUCAGUGGAACAACAGAGGAUUGAGCAUCA
B14: chr7:65705475:65705476:+_ENSG00000169902_ENST00000304842|hu_hu|hu_hu_hu_mus_True|18_68 (ssRNA)
RNA: GGGAGUUCUACAGUCCGACGAUCUCUAUUCGGUGAUGGCACUCCAUGGCAUGCUGGCCCAGGUAAAACACAGUCACAGAACUAAUCACCAGACACGCCAAGAGUAAGUUCUGCUUCAGCUUUCCAACCAUCUUGAUGUGGUUACAACAGAGGAUUGAGCAUCA
B15: chr10:34018870:34018871:+_ENSMUSG00000039485_ENSMUST00000047935|mus_hu|FALSE|FALSE (ssRNA)
RNA: GGGAGUUCUACAGUCCGACGAUCCUUACCAUAAGUACAUGGGUAUCAGGACACAGCCAGCAUAAAGUAUGAAGCCCAAUCAGUUAUUUGUGAAAAUGUAUCAAGAUUCUUUGUGGUACAGAACCACUUAAAUUGGGAGAAGAGCAACAGAGGAUUGAGCAUCA
B16: chr1:180971808:180971809:-_ENSG00000135823_ENST00000258301|hu_mus|motif|central (ssRNA)
RNA: GGGAGUUCUACAGUCCGACGAUCUUUUCUUAUGCUCAAUUCAGUUGCAUCCAAGUUGAAUUUUCUAGGAUUUGCUUCAACGGUGCUGAUGGUUUCAUCGAGGUCCUCCAGAUCCCACUCUAUGCUGCGGAGAUUGUUCCUCAGCAACAGAGGAUUGAGCAUCA
B17: chr1:39494564:39494565:+_ENSG00000168653_ENST00000372967|hu_hu|hu_hu_hu_mus_True|98_108 (ssRNA)
RNA: GGGAGUUCUACAGUCCGACGAUCAUGUGCACGUCUCAUCGUUUUCUACCGAAGCAAGCACUCUUCGAAGUCAUCGAACUCUAUCUUGCACUCCUUUUUCGCCCGGGUCCCACCGAUCCCGUGUGCACACUCUAUCCACUCUUUCAACAGAGGAUUGAGCAUCA
B18: 129999435_130001125_434_CDS_ENSMUSG00000027404_ENSMUST00000103199|mouse|control|control (ssRNA)
RNA: GGGAGUUCUACAGUCCGACGAUCAGCCCUGCCGAUGCCUGGCCCCCCAGCAGCUCCAGCAAGUGGCACUCGGGCAAUGCCAGUAUCUUUGGGAGGAGGUCCUUCUACUGUCAUGGAGACCAGGUUCUCCCCUCGAAGCAACACCAACAGAGGAUUGAGCAUCA
B19: chr3:98235988:98235989:-_ENSG00000080822_ENST00000341181|hu_hu|motif|central (ssRNA)
RNA: GGGAGUUCUACAGUCCGACGAUCUAAGCUUCGGCAAAUGCAAGCACAAAGUCCGAUCAAAGCCCCAAAGCACAUCAAACCGGAACUCACAAAAGGUAAAAGGAACUGGCAACGCCAAAGAUAGGUCCUAAGGAGAUCAAUCCCCAACAGAGGAUUGAGCAUCA
B20: chr1:66461069:66461070:+_ENSMUSG00000015222_ENSMUST00000114013|mus_hu|motif|central (ssRNA)
RNA: GGGAGUUCUACAGUCCGACGAUCCUGACUGUCCGUUUUUACAAUGACAUGGUUUUCAUCAGUUACCGGGGGCAAGCCAGUACGACGGUCCUCAACCACAGUCUCUGAUGGGACUGAUUUCCUCCUGGCAACCUCAGCAUCUGCCAACAGAGGAUUGAGCAUCA
B21: chr10:33190432:33190433:-_ENSG00000150093_ENST00000302278|hu_mus|hu_hu_hu_mus_True|18_98 (ssRNA)
RNA: GGGAGUUCUACAGUCCGACGAUCUACAUUUUCCAAACCUGCACAUGAAUAAAACCCUGGCCACAGAGCCCCAAAACUACCCUACUGUGACUAAGAUGCUGCUGCUGUGAGCUUGGUUGUUGUGGGACCGCCUGAGUAGGAUUCCAACAGAGGAUUGAGCAUCA
B22: chr1:8037743:8037744:+_ENSG00000116288_ENST00000493373|perfect_dup|FALSE|FALSE (ssRNA)
RNA: GGGAGUUCUACAGUCCGACGAUCUCCAUUCAUCAUUUUGUCUUUAGCAAGAGGGUGUGUUGUAACUUUACUUCCAAAACCUAUUUCAUGAGCCAACAGAGCAGUAGGACCUGCACAGAUGGCGGCUAUCAGGCCCUUCCGGUUCAACAGAGGAUUGAGCAUCA

What follows are binders tested against T1, UNK ZnF1-3 (assay: nsRBNS (natural sequence RNA bind-n-seq); RBNS binding buffer (assumed for nsRBNS): 25 mM Tris pH 7.5, 150 mM KCl, 3 mM MgCl2, 0.01% Triton X-100, 500 ug/ml BSA, 20 U/ml SUPERase-In, 4 C; UNK is unkempt and MSI1 is Musashi-1; names of the RNAs are library labels; protein concentration not given here; high values mean tight binding).
B1 gave a binding signal of 0.623 enrichment R. Work on B2 yielded a binding signal of 1.69 enrichment R. With B3 the binding signal was 0.732 enrichment R. For B4, the binding signal was 1.78 enrichment R. Binder B5 has a binding signal of 0.897 enrichment R. Work on B6 yielded a binding signal of 0.812 enrichment R. In the case of B7, the binding signal is reported as 1.15 enrichment R. B8 showed a binding signal of 1.42 enrichment R. With B9 the binding signal was 0.967 enrichment R. Binder B10 has a binding signal of 0.868 enrichment R. B11 gave a binding signal of 1.34 enrichment R. Binder B12 has a binding signal of 1.05 enrichment R. For B13, the binding signal was 0.995 enrichment R. B14 gave a binding signal of 0.58 enrichment R. B15 showed a binding signal of 1.84 enrichment R. Work on B16 yielded a binding signal of 0.435 enrichment R. With B17 the binding signal was 0.637 enrichment R. Binder B18 has a binding signal of 1.37 enrichment R. In the case of B19, the binding signal is reported as 1.61 enrichment R. Work on B20 yielded a binding signal of 0.687 enrichment R. For B21, the binding signal was 1.45 enrichment R. Work on B22 yielded a binding signal of 1.05 enrichment R.
